Results reported in patent publication US20170326249A1, “ANTIBODY-DRUG CONJUGATE OF AN ANTI-GLYPICAN-3 ANTIBODY AND A TUBULYSIN ANALOG, PREPARATION AND USES” (Bristol-Myers Squibb Company, priority 2016, published 2017).

B1: ADC A: ADC of antibody A with drug-linker of formula (IV) (conjugate)
heavy: EVQLVQSGAEVKKPGESLKISCKGSGYSFTSYWIAWVRQMPGKGLEWMGIIFPGDSHTGYSPSFQGQVTISADRSIRTAYLQWSSLKASDTAMYYCARTRQGYFDYWGQGTLVTVSSASTKGPSVFPLAPSSKSTSGGTAALGCLVKDYFPEPVTVSWNSGALTSGVHTFPAVLQSSGLYSLSSVVTVPSSSLGTQTYICNVNHKPSNTKVDKRV[human IgG1 Fc not spelt out]
light: [about 200 residues not spelt out]
B2: ADC B: ADC of antibody B with drug-linker of formula (IV) (conjugate)
heavy: B1 heavy with S31R, Q65R, R74K, R77S, Q101E
light: [about 200 residues not spelt out]
B3: ADC C: ADC of antibody C with drug-linker of formula (IV) (conjugate)
heavy: B1 heavy with S31R, R77S, Q101E
light: [about 200 residues not spelt out]
B4: Antibody A: variant of antibody GPC3.1; heavy chain variable region SEQ ID NO:23, kappa SEQ ID NO:24 (antibody, listed as Homo sapiens, V domains shown)
VH: EVQLVQSGAEVKKPGESLKISCKGSGYSFTSYWIAWVRQMPGKGLEWMGIIFPGDSHTGYSPSFQGQVTISADRSIRTAYLQWSSLKASDTAMYYCARTRQGYFDYWGQGTLVTVSS
VL: [about 100 residues not spelt out]
modifications: Antibody A heavy chain variable region; Antibody A kappa chain variable region
B5: Antibody B: variant of antibody GPC3.1; heavy chain variable region SEQ ID NO:25, kappa SEQ ID NO:26 (antibody, listed as Homo sapiens, V domains shown)
VH: B4 VH with S31R, Q65R, R74K, R77S, Q101E
VL: [about 100 residues not spelt out]
modifications: Antibody B heavy chain variable region; Antibody B kappa chain variable region
B6: Antibody C: variant of antibody GPC3.1; heavy chain variable region SEQ ID NO:27, kappa SEQ ID NO:28 (antibody, listed as Homo sapiens, V domains shown)
VH: B4 VH with S31R, R77S, Q101E
VL: [about 100 residues not spelt out]
modifications: Antibody C heavy chain variable region; Antibody C kappa chain variable region

Experiments:
[1] = tested on: Hep3B hepatocellular carcinoma cells; experiment: 3H thymidine incorporation proliferation assay, Hep3B; assay type: cell-based, human; details: FIG. 11B
Method: The human tumor cell lines were obtained from the American Type Culture Collection (ATCC), P.O. Box 1549, Manassas, Va. 20108, USA, and cultured according to instructions from ATCC. Cells were seeded at 1.0×10^4 cells/well in 96-well plates. […] Plates were allowed to incubate for 72 h. The plates were pulsed with 1.0 μCi of ^3H-thymidine per well for the last 24 hours of the total incubation period, harvested, and read on a Top Count Scintillation Counter (Packard Instruments, Meriden, Conn.). The EC50 values—the ADC concentration at which cell proliferation was reduced by 50%—were determined using PRISM™ software, version 4.0 (GraphPad Software, La Jolla, Calif., USA).

Hep3B tumors = experiment: Hep3B xenograft study; assay type: in vivo, CB17. SCID mice; details: 0.1 μmol/kg (FIG. 13A) and 0.03 μmol/kg (FIG. 13B), Q7D×2
Method: In this and other xenograft studies described herein, CB17. SCID mice were used.
ADCs were prepared combining drug linker compound (IV) and antibodies A, B, C, and E, to produce ADCs respectively designated ADC A, ADC B, ADC C, and ADC E. In vivo xenograft studies were performed for these four ADCs alongside ADC 3.1, a vehicle (formulation buffer) control, and an ADC control (an ADC of an anti-CD70 antibody with drug-linker (IV)), using Hep3B cells. Dosing was 0.1 μmol/kg (5 mg/kg) in one case (FIG. 13A) and 0.03 μmol/kg (1.5 mg/kg) in the other case (FIG. 13B). The dosing frequency was Q7D×2.

[2] = FACS study of the binding of ADCs (FIG. 11C); assay type: cell-based
Glypican-3 = Glypican-3 (Homo sapiens, UniProt P51654); experiment: Biacore binding affinity of antibodies to glypican-3; details: variant antibodies, Table 2

| Molecule | activity compared to ADC3.1 [1] | efficacy in reducing the tumor volume, comparison of ADCs (Hep3B tumors) | FACS binding [2] | koff × 10^−4 (1/s) (Glypican-3) | kon × 10^4 (1/Ms) (Glypican-3) |
| --- | --- | --- | --- | --- | --- |
| B1 | slightly more active than ADC3.1 | none of ADCs A, B, C or E was as efficacious as antibody GPC3.1 | slightly more active than the other three |  |  |
| B2 | slightly more active than ADC3.1 | none of ADCs A, B, C or E was as efficacious as antibody GPC3.1 |  |  |  |
| B3 | slightly more active than ADC3.1 | none of ADCs A, B, C or E was as efficacious as antibody GPC3.1 |  |  |  |
| B4 |  |  |  | 29 × 10^−4 1/s | 110 × 10^4 1/Ms |
| B5 |  |  |  | 36 × 10^−4 1/s | 170 × 10^4 1/Ms |
| B6 |  |  |  | 16 × 10^−4 1/s | 170 × 10^4 1/Ms |

Positions count from the first letter of the chain named.
